Test in all cases: co-IP; HEK 293T cells transfected with SFB-tagged (and Myc-tagged) constructs, 24 h; lysed in NETN buffer; S-protein agarose beads overnight at 4 °C; western blot; SFB-SPRTN with USP11 also after 20 μM VP16 for 4 h, CPT, formaldehyde or hydroxyurea (slight increase)
On the technique in general: A western blot detects proteins with antibodies after separation by electrophoresis.

The chains behind the UniProt entries cited, without tags or fusion partners.
UniProt Q93009: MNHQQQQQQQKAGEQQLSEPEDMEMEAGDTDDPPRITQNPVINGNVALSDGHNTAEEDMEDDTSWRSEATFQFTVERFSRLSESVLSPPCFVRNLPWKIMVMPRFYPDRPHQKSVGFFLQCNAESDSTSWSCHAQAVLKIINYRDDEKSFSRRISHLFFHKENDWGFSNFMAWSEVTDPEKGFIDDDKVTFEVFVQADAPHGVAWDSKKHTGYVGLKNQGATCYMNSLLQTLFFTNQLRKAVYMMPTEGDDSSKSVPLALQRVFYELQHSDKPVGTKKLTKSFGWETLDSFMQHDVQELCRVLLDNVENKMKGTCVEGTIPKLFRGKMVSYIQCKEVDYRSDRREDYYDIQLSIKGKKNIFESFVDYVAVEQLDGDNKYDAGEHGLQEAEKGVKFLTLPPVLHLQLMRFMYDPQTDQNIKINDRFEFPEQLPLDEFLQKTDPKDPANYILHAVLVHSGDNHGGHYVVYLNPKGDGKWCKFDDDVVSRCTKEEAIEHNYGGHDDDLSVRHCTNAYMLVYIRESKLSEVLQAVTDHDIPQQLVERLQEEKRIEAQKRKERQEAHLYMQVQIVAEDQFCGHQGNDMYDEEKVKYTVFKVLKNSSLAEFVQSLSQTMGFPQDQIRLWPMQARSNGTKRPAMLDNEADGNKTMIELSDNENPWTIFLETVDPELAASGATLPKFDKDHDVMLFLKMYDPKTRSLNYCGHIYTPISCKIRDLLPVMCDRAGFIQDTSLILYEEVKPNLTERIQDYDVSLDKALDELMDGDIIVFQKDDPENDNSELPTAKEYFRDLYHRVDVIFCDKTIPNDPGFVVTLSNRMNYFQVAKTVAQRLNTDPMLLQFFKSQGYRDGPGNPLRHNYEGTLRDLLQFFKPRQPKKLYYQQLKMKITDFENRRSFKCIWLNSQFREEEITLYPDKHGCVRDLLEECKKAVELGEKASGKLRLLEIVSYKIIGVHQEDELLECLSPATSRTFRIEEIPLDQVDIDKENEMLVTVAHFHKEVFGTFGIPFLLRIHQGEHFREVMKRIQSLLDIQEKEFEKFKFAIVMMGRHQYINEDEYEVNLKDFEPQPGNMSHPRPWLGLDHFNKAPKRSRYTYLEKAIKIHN
UniProt P51784: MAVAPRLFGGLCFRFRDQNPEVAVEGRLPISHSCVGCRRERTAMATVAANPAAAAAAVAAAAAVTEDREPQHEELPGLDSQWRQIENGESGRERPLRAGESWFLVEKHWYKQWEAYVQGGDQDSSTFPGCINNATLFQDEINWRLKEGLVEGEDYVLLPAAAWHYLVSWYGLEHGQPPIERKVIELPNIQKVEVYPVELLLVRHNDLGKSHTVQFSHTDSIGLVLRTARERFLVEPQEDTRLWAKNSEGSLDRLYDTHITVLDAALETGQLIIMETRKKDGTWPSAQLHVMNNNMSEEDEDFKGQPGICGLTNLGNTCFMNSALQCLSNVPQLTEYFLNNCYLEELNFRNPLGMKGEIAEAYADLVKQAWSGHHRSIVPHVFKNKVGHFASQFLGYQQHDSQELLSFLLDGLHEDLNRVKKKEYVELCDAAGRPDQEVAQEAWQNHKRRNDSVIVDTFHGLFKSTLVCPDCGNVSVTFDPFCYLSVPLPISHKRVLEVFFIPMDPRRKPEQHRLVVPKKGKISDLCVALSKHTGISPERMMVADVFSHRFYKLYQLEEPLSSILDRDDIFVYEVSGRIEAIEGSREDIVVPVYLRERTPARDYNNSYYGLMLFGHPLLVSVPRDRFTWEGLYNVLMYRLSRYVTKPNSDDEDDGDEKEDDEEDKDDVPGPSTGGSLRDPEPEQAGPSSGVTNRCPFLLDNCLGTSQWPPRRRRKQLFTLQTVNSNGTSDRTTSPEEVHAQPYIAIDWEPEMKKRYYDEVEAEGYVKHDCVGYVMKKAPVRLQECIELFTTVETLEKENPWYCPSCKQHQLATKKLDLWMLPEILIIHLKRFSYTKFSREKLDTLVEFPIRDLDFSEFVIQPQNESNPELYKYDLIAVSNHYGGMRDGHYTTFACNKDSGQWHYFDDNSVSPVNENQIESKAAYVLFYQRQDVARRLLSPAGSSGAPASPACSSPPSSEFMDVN

Assay [1] addresses T1, SFB-SPRTN full-length (FL) (UniProt Q9H040).
T1 sequence: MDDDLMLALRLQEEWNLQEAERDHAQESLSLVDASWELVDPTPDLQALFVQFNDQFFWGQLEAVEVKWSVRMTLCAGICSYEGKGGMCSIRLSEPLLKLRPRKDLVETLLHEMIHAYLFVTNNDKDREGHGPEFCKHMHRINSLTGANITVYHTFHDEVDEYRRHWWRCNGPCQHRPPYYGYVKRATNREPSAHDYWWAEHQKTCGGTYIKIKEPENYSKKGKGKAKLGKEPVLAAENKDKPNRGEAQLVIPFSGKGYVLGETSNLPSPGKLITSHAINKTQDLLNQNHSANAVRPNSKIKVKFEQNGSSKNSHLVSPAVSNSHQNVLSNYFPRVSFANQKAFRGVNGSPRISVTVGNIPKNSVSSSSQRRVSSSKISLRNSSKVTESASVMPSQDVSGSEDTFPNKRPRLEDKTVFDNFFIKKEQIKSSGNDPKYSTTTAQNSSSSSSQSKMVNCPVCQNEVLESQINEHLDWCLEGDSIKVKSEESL

The target of the next assay is SFB-USP7 (UniProt Q93009).
In assay [2] the target is T2, SFB-SPRTN with deletion of the 129 to 212 aa region (UniProt Q9H040).
T2 sequence: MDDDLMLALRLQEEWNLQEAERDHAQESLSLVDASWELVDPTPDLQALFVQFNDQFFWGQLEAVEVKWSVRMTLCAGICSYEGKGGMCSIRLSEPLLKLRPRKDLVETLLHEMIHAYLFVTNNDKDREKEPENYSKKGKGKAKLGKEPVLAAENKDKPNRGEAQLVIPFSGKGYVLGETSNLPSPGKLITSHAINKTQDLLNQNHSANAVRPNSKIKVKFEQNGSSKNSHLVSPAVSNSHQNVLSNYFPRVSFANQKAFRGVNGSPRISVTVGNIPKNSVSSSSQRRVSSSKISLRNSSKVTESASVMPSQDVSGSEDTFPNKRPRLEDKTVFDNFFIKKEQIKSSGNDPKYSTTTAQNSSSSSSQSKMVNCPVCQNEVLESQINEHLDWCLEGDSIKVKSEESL

In assay [3] the target is T3, SFB-SPRTN with deletion of the 186 to 212 aa fragment (UniProt Q9H040).
T3 sequence: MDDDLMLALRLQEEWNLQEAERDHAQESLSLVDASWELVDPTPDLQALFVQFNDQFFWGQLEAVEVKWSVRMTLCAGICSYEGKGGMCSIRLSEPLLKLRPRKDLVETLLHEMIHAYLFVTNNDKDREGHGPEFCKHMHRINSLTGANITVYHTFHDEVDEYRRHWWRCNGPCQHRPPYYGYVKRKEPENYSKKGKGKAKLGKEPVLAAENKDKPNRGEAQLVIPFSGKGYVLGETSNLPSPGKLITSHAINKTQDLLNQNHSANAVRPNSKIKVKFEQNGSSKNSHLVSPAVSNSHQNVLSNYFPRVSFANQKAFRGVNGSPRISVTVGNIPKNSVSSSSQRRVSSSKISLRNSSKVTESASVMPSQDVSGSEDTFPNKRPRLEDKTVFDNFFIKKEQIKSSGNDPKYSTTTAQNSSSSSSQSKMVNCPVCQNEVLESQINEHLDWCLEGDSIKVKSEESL

These are yes or no findings as the source states them, for the method shown. Binding seen in cells or lysates may run through a third protein. Some binding calls cover weakened binding; strength is not graded here.

As to “Myc-USP11 full-length (FL) (from UniProt P51784 1-963)”, the binding entry in assay [1] is “binds”.
Consider “Endogenous USP11 (from UniProt P51784 1-963)”, for which the binding entry with SFB-USP7 is “binds”; in assay [2], “no binding”; in assay [1] it was “binds”; in assay [3], “binds”.

The values are drawn from paper PMC7960550.
